The campaign covered roughly 270,000 compounds. About 620 (0.23%) were called active. Inconclusive means that the source gave no clear call. Such entries were picked first, then a sample of the others. The call rests on the fitted dose curve; in most records, active means well fitted inhibition curve with a large enough effect in the polarisation, with a control signal flat (not every such curve was filed as active); inconclusive means small, poorly fitted or top-dose-only effect, or effect the other way, or a change in a side signal; inactive means no such curve, though single readings can be large or run the other way; the % refers to the polarisation. Where the call is inconclusive, the potency comes from a doubtful curve fit. A note “side channel” means that the fit belongs to a control or component signal, not to the main read-out.
The compounds below were run against Menin (Homo sapiens) (UniProt O00255) (assay: qHTS Assay for Inhibitors Targeting the Menin-MLL Interaction in MLL Related Leukemias: Competition With Texas Red Labeled MLL-derived Mutant Peptide). Conditions: fluorescence polarization; FP activity change, negative = inhibition: at 61.6 µM (top of the series).
UniProt O00255, sequence (O00255 whole entry, looked up): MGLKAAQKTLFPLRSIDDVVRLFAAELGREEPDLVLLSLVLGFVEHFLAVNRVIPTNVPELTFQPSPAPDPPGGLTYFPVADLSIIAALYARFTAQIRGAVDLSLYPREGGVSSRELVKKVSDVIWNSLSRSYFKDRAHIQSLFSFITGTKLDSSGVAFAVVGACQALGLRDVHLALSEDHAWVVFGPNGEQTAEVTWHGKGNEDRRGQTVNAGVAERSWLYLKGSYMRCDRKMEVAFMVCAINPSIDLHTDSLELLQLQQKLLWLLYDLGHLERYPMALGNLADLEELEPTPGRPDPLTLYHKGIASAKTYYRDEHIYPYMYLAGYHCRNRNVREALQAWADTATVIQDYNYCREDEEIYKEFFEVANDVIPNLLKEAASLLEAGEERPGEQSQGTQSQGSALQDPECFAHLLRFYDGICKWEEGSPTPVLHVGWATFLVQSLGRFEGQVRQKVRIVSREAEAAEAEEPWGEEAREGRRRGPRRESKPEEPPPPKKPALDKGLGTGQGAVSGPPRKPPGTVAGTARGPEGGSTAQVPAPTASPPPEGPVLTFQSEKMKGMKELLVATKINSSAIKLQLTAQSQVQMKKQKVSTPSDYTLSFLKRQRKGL
With CCOC(=O)c1cc(-c2ccccc2)n(CC(=O)Nc2cc(OC)cc(OC)c2)c1C the Potency was inconclusive: 15.8 µM [quencher, side channel, partial curve]. CNc1ccc(Br)cc(C(=O)/C=C/c2ccc(Cl)cc2Cl)c1=O was tested, and the Potency was inconclusive: 15.8 µM [quencher, side channel, partial curve]. COc1cc2cc(CN(Cc3cccs3)C(=S)Nc3ccc(C)cc3)c(=O)[nH]c2cc1OC was tested, and the Potency was inconclusive: 22.4 µM [inhibitor, single point]. For Cc1ccc(Nc2ncccc2C(=O)O)cc1C, the Potency was inconclusive: 39.8 µM [quencher, side channel, single point]. In the case of Cc1cccc(NC(=O)C2CC(=O)N/C(=N/N=C/c3ccco3)S2)c1 (centres undefined), the Potency is reported as inconclusive: 28.2 µM [inhibitor, single point]. With NS(=O)(=O)c1ccc(NC(=O)c2c(Cl)cccc2Cl)cc1 the “FP activity change, negative = inhibition” value was inactive: 3%. In the case of C/C(=N\N=C(/N)SC1CC(=O)N(c2ccc(Cl)c(Cl)c2)C1=O)c1cccs1 (centres undefined), the Potency is reported as inconclusive: 5.01 µM [quencher, side channel, partial curve]. With CCOC(=O)c1ccc(NC(=O)Cn2c(C)nc3c(sc(=S)n3CC)c2=O)cc1 the Potency was inconclusive: 3.98 µM [quencher, side channel, full curve]. O=S(=O)(Nc1cccc(-c2cn3cccnc3n2)c1)c1ccc(-c2ccccc2)cc1 was tested, and the Potency was inconclusive: 39.8 µM [inhibitor, single point]. For N/C(=N\OC(=O)c1ccco1)c1cccnc1, the Potency was inconclusive: 39.8 µM [inhibitor, single point]. For COc1nc(-c2ccccc2)cc(C(F)(F)F)n1, the “FP activity change, negative = inhibition” value was inactive: -4.03%. For Cc1onc(-c2ccccc2)c1C(=O)N/N=C/c1cc(Br)c(O)c(Br)c1, the Potency was inconclusive: 25.1 µM [quencher, side channel, single point]. With Cc1cc(=O)oc(C)c1C(=O)NCCC(C)C the Potency was inconclusive: 2 µM [inhibitor, partial curve]. For CCn1c(=N)c(C(=O)NCCCOC)cc2c(=O)n3cccc(C)c3nc21, the “FP activity change, negative = inhibition” value was inactive: -13.2%. For O=[N+]([O-])c1cccc(Nc2c([N+](=O)[O-])ccc3nonc23)c1, the Potency was inconclusive: 25.1 µM [quencher, side channel, partial curve]. N#Cc1c(-c2ccco2)cc(-c2cccnc2)nc1N was tested, and the Potency was inconclusive: 35.5 µM [quencher, side channel, single point]. With CC(OC(=O)/C=C/c1ccco1)C(=O)Nc1cccc([N+](=O)[O-])c1 (centres undefined) the Potency was inconclusive: 14.1 µM [quencher, side channel, partial curve]. With CC1=CC(C)(C)n2c(O)c(C3=NC(=S)NC3=O)c3cc(OC(=O)c4cccc5ccccc45)cc1c32 the Potency was inconclusive: 2.82 µM [quencher, side channel, full curve]. With COc1ccc2oc(C(=O)OCC(=O)N3CCC(C)CC3)c(C)c2c1 the Potency was inconclusive: 7.08 µM [inhibitor, partial curve]. In the case of C=CCNc1ncnc2c1[nH]c1ccc(Cl)cc12, the “FP activity change, negative = inhibition” value is reported as inactive: 11.5%. For CC(Sc1ccc([N+](=O)[O-])cn1)C(=O)Nc1nccs1 (centres undefined), the “FP activity change, negative = inhibition” value was inactive: -2.65%. COc1cc2nc(-c3ccccc3C)oc(=O)c2cc1OC was tested, and the Potency was inconclusive: 35.5 µM [fluorescent, side channel, single point]. COC(=O)c1sc(NC(=O)c2c(F)cccc2F)c(C#N)c1C was tested, and the Potency was inconclusive: 28.2 µM [quencher, side channel, partial curve]. For O=C(c1cc(C2CC2)on1)N1CCN(C(c2ccccc2)c2ccccc2)CC1, the Potency was inconclusive: 4.47 µM [fluorescent, side channel, full curve, poor fit]. With O=C(Cc1c[nH]c2ccccc12)OCCOC(=O)Cc1c[nH]c2ccccc12 the Potency was inconclusive: 12.6 µM [quencher, side channel, partial curve]. In the case of O=c1c(O)c(-c2ccc(O)cc2)oc2cc(O)ccc12, the Potency is reported as inconclusive: 10 µM [quencher, side channel, full curve]. CCOc1ccc(-c2[nH]ncc2Oc2ccccc2OCC)c(O)c1 was tested, and the Potency was inconclusive: 12.6 µM [quencher, side channel, partial curve]. With COc1ccc2nc(NC(=O)c3ccc([N+](=O)[O-])o3)sc2c1 the Potency was inconclusive: 28.2 µM [quencher, partial curve]. With Cc1sc(NC(=O)Nc2ccccc2)c(C(N)=O)c1C the Potency was inconclusive: 11.2 µM [quencher, side channel, partial curve]. In the case of Cc1n[nH]c(C)c1S(=O)(=O)N1CCc2ccccc21, the Potency is reported as inconclusive: 31.6 µM [quencher, side channel, single point]. CCc1ccc(NC(=O)C(=O)NNC(=O)c2cccc(OC)c2)cc1 was tested, and the Potency was inconclusive: 20 µM [quencher, side channel, single point]. For CCOC(=O)C1(Cc2ccc(Cl)cc2)CCN(Cc2nccn2CC)CC1, the Potency was inconclusive: 7.08 µM [fluorescent, side channel, full curve]. With Cn1c(/C=C/c2ccc(Cl)cc2Cl)c([N+](=O)[O-])c(=O)n(C)c1=O the Potency was inconclusive: 28.2 µM [quencher, side channel, single point]. O=C1CC(c2ccccc2)n2nc(NC(=O)c3ccccc3)nc2N1 (centres undefined) was tested, and the “FP activity change, negative = inhibition” value was inactive: -18.3%. In the case of CCOC(=O)CSc1cccc2cccnc12, the “FP activity change, negative = inhibition” value is reported as inactive: -3.93%. With CC1=C(C(=O)Nc2ccccc2)C(c2ccc(Cl)cc2)n2c(s/c(=C/c3cccc(OCC(=O)O)c3)c2=O)=N1 (centres undefined) the Potency was inconclusive: 5.01 µM [quencher, side channel, full curve]. In the case of S=C(NCCc1ccccc1)Nc1ccc(Cl)cc1, the Potency is reported as inconclusive: 28.2 µM [quencher, side channel, single point]. For Cc1c(C(=O)N2CCN(c3ncccn3)CC2)sc2nc3n(c(=O)c12)CCCC3, the Potency was inconclusive: 39.8 µM [inhibitor, single point]. With Cc1cc(-c2cccs2)nc(-n2cccc2)n1 the Potency was inconclusive: 10 µM [quencher, side channel, partial curve]. With Cc1ccc(OCC(O)Cn2c(N3CCCCC3)nc3c2c(=O)[nH]c(=O)n3C)cc1 (centres undefined) the Potency was inconclusive: 11.2 µM [fluorescent, side channel, partial curve]. For COc1cc(OC)c2c(c1C(CCN1CCCCC1)c1ccc(N(C)C)cc1)OC(=O)CC2c1ccc(N(C)C)cc1 (centres undefined), the “FP activity change, negative = inhibition” value was inactive: 2.4%. With COc1ccc(CNCc2c(F)cccc2F)cc1OC the Potency was inconclusive: 0.794 µM [quencher, side channel, full curve]. CCOC(=O)C(=CNc1cccc(C)n1)C(=O)OCC was tested, and the Potency was inconclusive: 28.2 µM [fluorescent, side channel, single point]. For COc1ccc(N2C(=O)CC(Sc3nnnn3-c3ccc(F)cc3)C2=O)cc1 (centres undefined), the “FP activity change, negative = inhibition” value was inactive: -0.865%. With COCCNC(=S)N1CCCN(c2nc3cc(C)ccc3cc2C#N)CC1 the Potency was inconclusive: 5.01 µM [inhibitor, single point]. For Cc1cccc(NS(=O)(=O)c2ccc3[nH]c(=O)cc(C(=O)OC(C)C(=O)Nc4ccc([N+](=O)[O-])cc4)c3c2)c1 (centres undefined), the Potency was inconclusive: 5.62 µM [quencher, side channel, partial curve]. CCCCNC(=O)N(O)C1N(/N=C/c2ccccc2O)C(=S)SC1(C)C (centres undefined) was tested, and the Potency was inconclusive: 22.4 µM [quencher, side channel, single point]. CC(CCc1ccccc1)NC(=O)CCc1cn(C)c2ccccc12 (centres undefined) was tested, and the Potency was inconclusive: 39.8 µM [inhibitor, single point]. In the case of Cc1ccc(-n2cc(-c3ccccc3)c3c(N4CCN(C)CC4)ncnc32)cc1, the Potency is reported as inconclusive: 7.94 µM [fluorescent, side channel, full curve, poor fit]. With Cc1cccc(/C(N)=N/OC(=O)N2c3ccccc3Sc3ccccc32)c1 the Potency was inconclusive: 28.2 µM [quencher, side channel, partial curve]. In the case of CC(C)(C)N1C(=O)[C@H]2[C@H]3[C@H](O)[C@H](O)C/C(=N/NC(=O)OCc4ccccc4)[C@@H]3CC[C@@H]2C1=O, the FP activity change, negative = inhibition is reported as inactive: 6.43% [at 11.7 µM]. COc1ccc(NC(=O)c2cc3ccccc3o/c2=N\NS(=O)(=O)c2ccc(C)cc2)cc1 was tested, and the Potency was inconclusive: 3.16 µM [quencher, partial curve]. With CC(C)C(CCNC1CCN(C)CC1)c1ccc(Cl)cc1 (centres undefined) the Potency was inconclusive: 11.2 µM [fluorescent, side channel, partial curve]. COCCn1c(=NC(=O)c2sc3ccccc3c2Cl)sc2cc(S(N)(=O)=O)ccc21 was tested, and the “FP activity change, negative = inhibition” value was inactive: 2.61%. CC(C)c1ccc(C2C(C#N)=C(N)N3C(=C2C#N)Sc2ccccc23)cc1 (centres undefined) was tested, and the Potency was inconclusive: 56.2 µM [inhibitor, partial curve, poor fit]. With O=[N+]([O-])c1cccc(-c2nc(-c3ccccc3)c(-c3cccs3)[nH]2)c1 the Potency was inconclusive: 10 µM [quencher, side channel, partial curve]. Cc1nc(NC(=O)c2ccccc2)sc1-c1csc(Nc2cccc(F)c2)n1 was tested, and the Potency was inconclusive: 6.31 µM [quencher, side channel, partial curve]. For O=C(CNC(=O)c1cccc(Br)c1)N/N=C/c1cc(Br)cc(Br)c1O, the Potency was inconclusive: 14.1 µM [quencher, partial curve]. With COc1ccccc1C(=O)Nc1cccc2nc(C)ccc12 the Potency was inconclusive: 25.1 µM [inhibitor, single point].

From PubChem BioAssay AID1768 (National Center for Advancing Translational Sciences (NCATS), 2009)
Potency means the concentration at half of the fitted maximal effect; tags describe the fitted curve by direction and shape or compound fluorescence and quenching.
Wherever FP activity change, negative = inhibition is given: % of control where 0% means no effect.
